# Experimental data from the supplement of paper PMC10126150.
# Sequences with one replicate were seen in a single cluster, so their values are uncertain.
# Tested on: ATP
# Assay: switch fluorescence ratio, 500 uM ATP over buffer (Cy3 cluster intensity, sum of 5 cycles each) (fold (ratio)); higher = stronger signal-on switching upon ATP binding; sequences stand for … in TCGTCGGCAGCGTCAGATGTGTATAAGAGACAGTTTTTTTTTTTTTTTTTTTTTTTTT…TC
# Details: aptamer strand: ATP DNA aptamer (quencher-CACCTGGGGGAGTATTGCGGAGGAAGG + anchor), 100 nM annealed; ATP concentration: 500 uM; one replicate
# Procedure, shortened: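 Five buffer/ATP imaging cycles were run on Cy3-labelled switching-strand clusters on a modified Illumina MiSeq flow-cell, with NaOH stripping and re-annealing between cycles. In each cycle, clusters annealed to 100 nM quencher-labelled ATP aptamer were imaged in selection buffer, then after 15 min with 500 uM ATP at 22 °C. Per cluster, the fluorescence ratio is summed target-cycle over summed buffer-cycle Cy3 intensity, averaged per switch-domain sequence. Only clusters within 100-1000 RFU were kept.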
# 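Note: ATP exposure 15 min at 22 °C before imaging.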
row,Sequence,switch fluorescence ratio
1,CGGATGCAT,0.969
2,TCGTCTGG,0.985
3,ATGGTCGCGA,0.981
4,GCTGTTAGGA,1.04
5,TATTTCCGCT,1.88
6,TTGGTTGCCT,1.01
7,AACTTTGCTA,1.05
8,AGGGAGGAAG,0.983
9,GCCAACTCAG,0.993
10,TATTGGCTA,0.99
11,ATCCGGATTT,0.984
12,GCTGCTCGGC,1.02
13,AGTCGGTTAT,1.07
14,GAGTGGCGCG,0.999
15,CCCGTAGTTT,1.04
16,ATAATAGAGA,0.969
17,TACGTTTCGT,0.992
18,TCAGAAATCA,1.02
19,ATAGTGCTG,0.94
20,GGTCTTAAAA,1.02
21,CTGGCGCAGT,1.63
22,AATGAAAAAA,1
23,TGACTAAATT,1.06

row,Sequence,switch fluorescence ratio
1,TTTCTTTGAG,1.01
2,CCAGCCCCTC,1.17
3,TCACGCACCA,1.53
4,CAAACTTTAT,0.995
5,CCATTATTGA,0.959
6,GCTGGTGCGT,0.966
7,CCTCGTCCAT,1.65
8,TGCGAACGTT,1.04
9,GAGCACGGAA,1.1
10,TCGCGATTC,1.24
11,TGCCTTTCTT,1.1
12,CTCGTCTATC,1.17
13,ACGAGCGGG,0.978
14,GCTTTCGCTT,0.989
15,GCGTTGCGGG,1.04
16,GGATAATTCG,1.07
17,GGACATATAC,1.79
18,CCATATATTG,0.948
19,ACGAGCCCAC,1.26
20,TATATGTTT,1.02
21,CCACATTTAA,1
22,GTCTGCTGAA,1.06
23,GACTTGGTTC,1

row,Sequence,switch fluorescence ratio
1,GACTTGTGGC,1
2,TAGGATC,0.995
3,GCAAAGAGGC,1.02
4,GGTACGTAGG,1.05
5,GATCGG,1.07
6,TATCACTTCT,1.02
7,TGATTCGTTA,0.998
8,CAAATAAAGT,1
9,CCCAAATCGC,3.94
10,CTTTTGCCAT,2.72
11,AGAAATACCT,1.5
12,ACGTCCGGA,0.96
13,CCTCGTAGCG,1.06
14,GGGATGCAGT,1.01
15,TGGTGTTGA,0.985
16,TTTGAAAAAC,1.02
17,TGCACAGACC,1.04
18,AGACTCGAAA,1.05
19,ACTGGGAGTA,1.04
20,CTGGCCTGAT,0.999
21,CCGGGCCACG,1.03
22,GTGTGTTGCA,0.974
23,AACTGTGACT,1.08

row,Sequence,switch fluorescence ratio
1,AAGAATTACG,1.08
2,GGCGGGCTTT,1.01
3,TCCCATACCG,1.01
4,GTCATCAAGC,1.05
5,TAATTTGGAT,1
6,AACCCACAAC,1.29
7,CAGGGCATAT,1.06
8,AGCGTCGATA,1.03
9,GGATTGTCCA,0.952
10,AAATTGCGCA,1.05
11,TCGCCGCCGG,1.05
12,CTTTCTCTGC,2.73
13,ATACGGGCAG,1.01
14,CAAGAGCGGG,0.999
15,GTGCATGGCA,1.04
16,TGGCGGGGAA,1.04
17,CGTGTCAAGG,0.991
18,TGGCCTATCG,0.998
19,GATCCACAGA,1.08
20,AACCATACTG,1.35
21,TCACGAGTTG,1
22,CGATACTTTT,0.992
23,TGACCGACAA,1.43

row,Sequence,switch fluorescence ratio
1,ACCCGTTTTT,1.01
2,CCTCACCGAG,1.13
3,TATAATATG,0.994
4,CACTGGGCCG,0.976
5,CGATCTAGCA,0.982
6,AATGTCTGAT,0.973
7,CTAAGAGGCT,1.02
8,AGCGGTTAG,1.06
9,AGGTTAGCG,0.974
10,GAAAGCGTGC,1.06
11,ACATAGACGC,1.14
12,GTATGGG,0.984
13,ACTCCAAA,1.35
14,ATCACATCAA,1.02
15,GCAATTTTCG,1.09
16,TCAGTGTAGT,1.04
17,ACATGGAACG,1.01
18,GCGTCAAATT,1.01
19,CTGGCGCGG,1.02
20,GTAGGATTGG,0.997
21,CAATCTAAGG,0.961
22,TCGGTGCACC,1
23,AGTTTTCAAA,1

row,Sequence,switch fluorescence ratio
1,TTTTTCCGAC,1.15
2,AATTGAAGCT,0.991
3,GTCCGCCGTT,1.04
4,ACTGGGTCGG,0.994
5,GGTCTACATA,0.998
6,TTTCCTCGAA,1.12
7,TTTCTTTCCC,1.09
8,TCCTGGTTGG,1.02
9,TAATTATACT,1.11
10,TCCGACGTCA,5.83
11,GGCTTCATGA,1.04
12,ACGGGAAGCG,1.02
13,GCATGTGAGC,1.03
14,AAGAACGCAT,1.16
15,AATTGTGGAC,0.986
16,CGATCTCGAG,1
17,AGCTGAGCGG,0.984
18,ATTAAAGAAC,1.03
19,GACCCCGGGA,1.02
20,CGAACCAAAC,2.13
21,TCAATCGAGA,0.995
22,CGCAGCAGGA,2.51
23,TCGCCGGTGT,1.01

row,Sequence,switch fluorescence ratio
1,ATGAGCTTCG,1.01
2,GGCCAGGTTT,1.05
3,GAATCAGTCG,0.95
4,TCAATGCGCG,1.08
5,ACCGGTATGC,1.12
6,TTAGATGTTC,0.991
7,GGTAGCCCGT,0.936
8,ACACCTGGGT,1.04
9,GTCTATCCTA,0.986
10,TGAAGTTTGT,0.967
11,GTAGGATGGA,0.978
12,TGGAAAGTTG,0.997
13,ATGCATCTTG,0.983
14,GTCTCAGCGG,0.994
15,TTGAAGGCG,1.05
16,CAGGGTACAA,1.12
17,GCCAGGTACT,1.45
18,CGCAGTTTCA,1.02
19,TAAAGGACAG,0.982
20,TATAGTCTCA,0.986
